{
  "source": "PubChem BioAssay AID1240",
  "about": "(Sanford-Burnham Center for Chemical Genomics, 2008)",
  "note": "Screen size: about 50,000 compounds; about 800 (1.6%) showed an effect of 50% or more. Some of the results follow.",
  "data": [
    {"target": "Bcl-2-like protein 10 (Homo sapiens) (UniProt Q9HD36)", "sequence (Q9HD36 whole entry, looked up)": "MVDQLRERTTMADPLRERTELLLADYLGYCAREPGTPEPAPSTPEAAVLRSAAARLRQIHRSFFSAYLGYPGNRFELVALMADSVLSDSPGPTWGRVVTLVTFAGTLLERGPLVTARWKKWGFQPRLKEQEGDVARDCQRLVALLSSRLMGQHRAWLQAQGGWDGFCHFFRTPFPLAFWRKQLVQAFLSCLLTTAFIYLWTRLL", "test": "Phenotype converters, Bcl-B/TR3 peptide binding displacement, primary biochemical FP (AID 1240);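 note: 0% = Bcl-B with tracer peptide and DMSO and 100% = tracer peptide lacking Bcl-B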", "conditions": "GST-Bcl-B / FITC-TR3 peptide fluorescence polarization; stronger effect = higher value; compound at 3.75 mg/L", "units": {"displacement": "%"}, "values": [
      {"smiles": "O=Cc1ccc(OC(=O)c2sc3ccccc3c2Cl)cc1", "displacement": 16.3},
      {"smiles": "C=COCCNC(=O)C(=O)Nc1ccc(C)cc1", "displacement": 1},
      {"smiles": "Cc1ccc(OCC(=O)Nc2ccc(C(=O)Nc3cccc(O)c3)cc2)cc1C", "displacement": -7.9},
      {"smiles": "COc1ccc2c(c1)OCC/C2=N\\OC(=O)c1cccc(Br)c1", "displacement": -8.4},
      {"smiles": "Cc1cc(OCC(=O)O/N=C(\\N)c2ccc([N+](=O)[O-])cc2)ccc1Br", "displacement": 0.7},
      {"smiles": "Cc1sc(NC(=O)/C=C\\C(=O)O)nc1-c1ccccc1", "displacement": -5.8},
      {"smiles": "O=[N+]([O-])c1cccc(S(=O)(=O)NC2C3CC4CC(C3)CC2C4)c1", "note": "(stereo unspecified)", "displacement": 4.7},
      {"smiles": "CCOc1ccc(C(=O)Nc2ccc(N(CC)CC)cc2)cc1", "displacement": 13.6},
      {"smiles": "CCOc1ccc(C(=O)Nc2ccc(-c3nc4ccccc4s3)cc2)cc1[N+](=O)[O-]", "displacement": 3.4},
      {"smiles": "O=C(COC(=O)C1CCCN1C(=O)Oc1ccccc1)c1ccc([N+](=O)[O-])cc1", "note": "(stereo unspecified)", "displacement": 6.4},
      {"smiles": "COc1ccccc1C(=O)Nc1ccc(OC(F)(F)F)cc1", "displacement": 11.2},
      {"smiles": "CC(=O)Oc1ccc2c(c1)c(C(C)=O)c(C)n2-c1ccccc1", "displacement": -2},
      {"smiles": "COc1ccc(-c2cc(=O)oc3cc(O)ccc23)cc1", "displacement": 0.7},
      {"smiles": "Cc1ccc(NC(=O)CSc2ncn[nH]2)cc1", "displacement": 8.2},
      {"smiles": "Cc1ccc(Cl)cc1NC(=O)CSc1nnnn1-c1ccccc1", "displacement": 1.8},
      {"smiles": "Fc1cc(F)c(F)c(SCCc2ccncc2)c1F", "displacement": 5.9},
      {"smiles": "Oc1c(Br)cc(Cl)cc1/C=N/Nc1nnc2c(n1)[nH]c1ccccc12", "displacement": 24},
      {"smiles": "CCc1cc(=O)oc2cc(OCC(=O)O)ccc12", "displacement": -6.3},
      {"smiles": "O=C(Nc1nnc(-c2ccc(F)cc2)s1)c1ccc(Cl)cc1Cl", "displacement": -11.6},
      {"smiles": "Cc1nn(C(=O)c2ccnn2C)c(C)c1Br", "displacement": 0.4},
      {"smiles": "O=S(=O)(c1cccs1)N1CCN(Cc2ccccc2)CC1", "displacement": -11.1},
      {"smiles": "Cc1cc(/C=C2/SC(=S)NC2=O)c(C)n1-c1ccc(F)cc1", "displacement": -6.4},
      {"smiles": "O=C(COc1ccccc1)Nc1ccc(Nc2ccccc2)cc1", "displacement": 5.2},
      {"smiles": "O=C(COc1ccccc1)/C(=C(/O)c1ccccc1)c1nc2ccccc2[nH]1", "displacement": 6.5},
      {"smiles": "CCCN(CCC)CCCNC(=O)C(=O)Nc1cccc(C(F)(F)F)c1", "displacement": -2.3},
      {"smiles": "CCCCNC(=O)C1CC(=O)N(c2ccc(CC)cc2)C1", "note": "(stereo unspecified)", "displacement": 3.5},
      {"smiles": "COc1ccccc1NC(=O)c1ccn(C(=O)c2cccc(I)c2)n1", "displacement": -2.1},
      {"smiles": "CCOC(=O)c1cc(Br)c(Cl)cc1[N+](=O)[O-]", "displacement": -16.9},
      {"smiles": "COc1ccc(N=Cc2ccc([N+](=O)[O-])s2)c([N+](=O)[O-])c1", "displacement": -1.7},
      {"smiles": "CCOc1ccc2nc(N(C)C)[nH]c2c1", "displacement": 0.5},
      {"smiles": "CCOC(=O)c1c(NC(=O)C2C3C=CC(C3)C2C(=O)O)sc2c1CCC2", "note": "(stereo unspecified)", "displacement": -4.7},
      {"smiles": "COC(=O)COC(=O)c1c(Cl)ccc(Cl)c1OC", "displacement": 9.8},
      {"smiles": "COc1ccc(/C=C2\\C(=O)N(c3cccc(C(=O)O)c3)N=C2C)cc1", "displacement": -1.3},
      {"smiles": "Cc1ccccc1NC(=O)CN(c1ccc(Oc2ccccc2)cc1)S(C)(=O)=O", "displacement": 1.7},
      {"smiles": "O=C(CO/N=C/c1ccccc1)N=Nc1c(O)[nH]c2ccc(Br)cc12", "displacement": 3},
      {"smiles": "O=C(CCCN1C(=O)c2ccccc2C1=O)Nc1ccccc1C(=O)N1CCOCC1", "displacement": 11.9},
      {"smiles": "Cc1cccc(C(=O)NCc2ccco2)c1", "displacement": -28.7},
      {"smiles": "CC(C)(C)C(=O)Nc1ccc(Cl)cc1C(=O)O", "displacement": 2.5},
      {"smiles": "O=C(Nc1cc(Cl)ccc1Cl)c1ccc(-c2ccc(Cl)cc2)o1", "displacement": 43},
      {"smiles": "O=C(Nc1ccccc1Cl)c1ccc(CN2CCc3ccccc3C2)cc1", "displacement": 12.1},
      {"smiles": "O=c1c2ccccc2nc(/C=C/c2ccc([N+](=O)[O-])cc2)n1Cc1ccccc1", "displacement": 118},
      {"smiles": "CCOC(=O)Cc1csc(NC(=O)CCN2C(=O)c3cccc([N+](=O)[O-])c3C2=O)n1", "displacement": -7.4},
      {"smiles": "Cc1nn(-c2ccccc2)c(C)c1/C=N/NC(=O)c1cc(-c2ccccc2)n[nH]1", "displacement": -3.8},
      {"smiles": "COc1ccc(C)cc1NC(=O)c1ccccc1[N+](=O)[O-]", "displacement": -1.8},
      {"smiles": "O=C(COc1cccc(Cl)c1)N/N=C/c1c(Br)cc(Br)c(O)c1Br", "displacement": 2.7},
      {"smiles": "CCN(CC)CCCCCOc1cccc2ccccc12", "displacement": 17.3},
      {"smiles": "O=[N+]([O-])c1cccc(-c2csc(N/N=C\\c3cccc(O)c3)n2)c1", "displacement": 1.9},
      {"smiles": "Cc1cccn2c(=O)c(/C=C3\\SC(=S)N(Cc4ccco4)C3=O)c(NCCCn3ccnc3)nc12", "displacement": 8.9},
      {"smiles": "O=C1/C(=C/Nc2ccccc2NS(=O)(=O)c2ccc([N+](=O)[O-])cc2)CCc2ccccc21", "displacement": 8.1},
      {"smiles": "COC(=O)CN1C(c2ccccc2)=Nc2ccc(Br)cc2C1c1ccccc1", "note": "(stereo unspecified)", "displacement": 2.2},
      {"smiles": "Cc1ccc(OCCOCCOc2cccc(/C=c3\\sc4nc5ccccc5n4c3=O)c2)cc1", "displacement": 11.4},
      {"smiles": "O=C(NCc1ccccn1)C(Sc1ccccc1)c1ccccc1", "note": "(stereo unspecified)", "displacement": -4.3},
      {"smiles": "O=C1/C(=C\\c2c(Cl)cccc2Cl)SC(=S)N1c1ccc(F)cc1", "displacement": -7.2},
      {"smiles": "O=C(Nc1ccc(Cl)c(-c2nc3ccccc3o2)c1)c1cccs1", "displacement": 10.1},
      {"smiles": "Cc1cccc(C(=O)NCC(C)CN(C)C)c1", "note": "(stereo unspecified)", "displacement": 11.2},
      {"smiles": "COc1ccc(OC)c(N(CC(=O)Nc2ccc(Oc3ccccc3)cc2)S(C)(=O)=O)c1", "displacement": 10.7},
      {"smiles": "COc1ccc(N(CC(=O)Nc2ccccc2F)S(=O)(=O)c2ccc(OC)c(OC)c2)cc1", "displacement": -18.6},
      {"smiles": "O=S(=O)(NC(=S)c1ccccc1)c1ccc(I)cc1", "displacement": 11.9},
      {"smiles": "C#CCSc1nc(C)cc(C)c1C#N", "displacement": -8.7},
      {"smiles": "CCOc1ccc(NC(=O)C2CC2(c2cccc(OC)c2)c2cccc(OC)c2)cc1", "note": "(stereo unspecified)", "displacement": -12.9},
      {"smiles": "O=C(Nc1ccc2nn(-c3cccc([N+](=O)[O-])c3)nc2c1)c1ccccc1Br", "displacement": 3.7},
      {"smiles": "O=C(Nc1ccccc1Cl)c1ccc2nccnc2c1", "displacement": 13.6},
      {"smiles": "O=C1c2ccccc2C(=O)N1CCCCN(C(=O)c1ccc(Cl)s1)c1ccc(F)cc1F", "displacement": 10.1},
      {"smiles": "CCCSc1nnc2c(n1)[nH]c1c(C)cccc12", "displacement": 5.4},
      {"smiles": "COc1ccc(N2C(=O)CS(=O)(=O)C2c2ccc(Cl)cc2)cc1", "note": "(stereo unspecified)", "displacement": 2.3},
      {"smiles": "O=C(O)CSc1nc2ccc([N+](=O)[O-])cc2s1", "displacement": 1.2},
      {"smiles": "COc1ccc(/C=C2\\C(=O)NC(=S)N(c3ccc(Br)cc3)C2=O)cc1", "displacement": 10.1},
      {"smiles": "COc1ccc(C(=O)Nc2ccc(S(=O)(=O)N3CCc4ccccc43)cc2)cc1", "displacement": 7.1},
      {"smiles": "CCOC(=O)c1c[nH]c2cc(C(=O)OC)ccc2c1=O", "displacement": -19.8},
      {"smiles": "CC(C)(C)CC(C)(C)N=C1NS(=O)(=O)c2cc([N+](=O)[O-])ccc21", "displacement": 18.1},
      {"smiles": "O=C1c2ccc(Oc3cccc([N+](=O)[O-])c3)cc2C(=O)N1c1ccncc1", "displacement": -0.9}
    ]}
  ]
}
